Results on 167 variants are retold here after the RNAGym collection of RNA variant scans (doi:10.1093/nar/gkz1192).

B1: CPEB3 Ribozyme (parent)
chain: UAACAGGGGGCCACAGCAGAAGCGUUCACGUCGCAGCCCCUGUCAGAUUCUGGUGAAUCUGCGAAUUCUGCUGUAUAUCUC

The source gives no read counts; variants with many changes may rest on few reads.

The variants in the data set derive from B1. Briefly: self-cleavage, relative activity (ratio to wild type); higher = more cleavage; in vitro, sequencing. Summed up: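 After error-prone PCR and barcoding, CPEB3 ribozyme mutant libraries were transcribed with T7 RNA polymerase at 37°C for 5 hours, then given 15 min with DNase I before an EDTA stop, and they cleaved during both steps. Reverse transcription with template switching preceded Illumina sequencing. Relative activity divides a variant's cleaved/total read fraction by the unmutated ribozyme's. At least 5 reads were required per variant, and three batches were averaged.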
For U1G U25C C40U A75G, the self-cleavage amounted to 0.2. With A2G A20U A21G U60C U80A, the self-cleavage stood at 0.27. Regarding A2G A13U U41A, the self-cleavage came to 0.23.

Take A2C G7U A64U: the self-cleavage came out at 0.07. In the case of A2G A5G C39A A56G, the self-cleavage worked out at 0.15. For the variant A2G A3U A21G C23U C38G G42A U54A, the self-cleavage amounted to 0.05. The value for A2G A5G C14U U26C U49C A77G was 0.08; that for U1G G9U A13C A35G was 0.48; that for A2G A3U A15G A64U U66C U69A U72G was 0.2.

As to A2C A20G A28G U58C, the self-cleavage is 0.09. In the case of A2G A5G C17G U58C A77G, the self-cleavage stood at 0.11.

Turning to A2G A3U G7C A20U U60C U76C U78C, the self-cleavage is 0.05.

As to A2C A28G U41A U48G, the self-cleavage came out at 0.32. The value for A2G A18U U41A C71A was 0.36. Turning to A2G A13U A21U U72C U80C, the self-cleavage is 0.72.

Regarding A2G A13U A18G U76A, the self-cleavage was found to be 0.54. Turning to U1G C12A A20G U48G G63A, the self-cleavage came out at 0.21.

Take A2G A5G C17U U43C: the self-cleavage is 0.26.

As for A2G A21G A45U U48C U49G A56G U67A, the self-cleavage turned out to be 0.14. Consider A2G A3G G10A A15G A35U U54C U72G, for which the self-cleavage is 0.09. Regarding A2G A20G U80C, the self-cleavage came to 0.92. A2G A20G U80G: the self-cleavage was 0.67.

For A2G A18G U26C A56G U72A, the self-cleavage amounted to 0.24.

For A2C G24A U41C U43C G52A, the self-cleavage stood at 0.23.

On to U1G C17G A20C G36A U69A, for which the self-cleavage was 0. A2G A13G U78C: the self-cleavage amounted to 0.6. Turning to A2G A5G A18G G19C A28U G52A, the self-cleavage was found to be 0.09. A2C A5U G33U A47G: the self-cleavage is 0.13. For A2G A13U A28G U69C, the self-cleavage was 0.1. With A2G A13G A15G C38U C59A U72C, the self-cleavage worked out at 0.47.

In the case of A2G A20G U26C A45G U54C, the self-cleavage stood at 0.42. For A2G A18G A28G G30C C39A U51C, the self-cleavage is 0.06. Consider A2C C23A A64U U67A, for which the self-cleavage turned out to be 0.19.

As to A2G A3G U43A U49A, the self-cleavage was 0.96.

A2C U25G U26C A45U: the self-cleavage was determined as 0.52. Consider U1G C27G U60A, for which the self-cleavage is 0.27. Turning to A2G A15U A21G A28G C81U, the self-cleavage came out at 0.1. For A2G A15U A45G G61U, the self-cleavage was 0.13. Consider A2C U54C A64G U67C C79A U80C, for which the self-cleavage was determined as 0.11.

As to A2G A3G C11G A18G A21G C38G A56G, the self-cleavage was 0.5.

For A2C A28G U48G U67A A77U, the self-cleavage turned out to be 0.06. Turning to A2G A18U A35G C37A G61A, the self-cleavage was 0.12.

With A2G A13U A57G U69A, the self-cleavage came to 0.2. As to A2G A15G U26C U41A U67C A77G, the self-cleavage was determined as 0.29. The value for U1G U25C A35G U49C was 0.12. Consider A2G A20G G30A A35G U43C, for which the self-cleavage was found to be 0.12. The value for A2C A21G G22U U58C C71U was 0.11; that for A2G A18U C44A U51C A65G A75C was 0.1. U1G U25A C40U A65G: the self-cleavage came to 0.07.

A2G A5U A15G A47G U48C: the self-cleavage is 0.54. The value for A2G A15U A28U U54C U58C was 0.22; that for A2C C11U U76C was 0.34; that for A2G A5G C12U A21U U66C was 0.1. The value for A2G A13G C39U was 0.35. The value for A2G A18U G19U A35U A64U U72A was 0.04. Regarding A2G A5G A15G, the self-cleavage worked out at 0.45. Consider A2G A21G A45U U48C U49G A56G, for which the self-cleavage amounted to 0.23.

With A2G A20G C29U U49C U54C U80C, the self-cleavage came out at 0.08. With A2G A15G A35U U41A, the self-cleavage is 0.08. As to A2C A21G A28G A35U A45G A56G G73A, the self-cleavage was determined as 0.47. Turning to A2G A20U A56U C71A, the self-cleavage is 0.07.

Turning to A2C A5U A65G U72A U76C U80A, the self-cleavage amounted to 0.41. Turning to A2G A5U G10A U25C A56G U60A, the self-cleavage came out at 0.2. Regarding A2G A18U C23A, the self-cleavage worked out at 0.64. A2G A20U A21G A45C: the self-cleavage stood at 0.35.

Turning to A2G A18G C40U A64G U74C, the self-cleavage was 0.36.

On to A2G A13U A45G, for which the self-cleavage is 0.47. Consider A2G A18C U31C U54C C59A, for which the self-cleavage is 0.24. As to A2G A15G U58C, the self-cleavage amounted to 0.29.

With A2G A20U G24A U60A, the self-cleavage worked out at 0.33. The value for A2G A18U U60A U78C was 0.18; that for A2G A21G A28G U66C was 0.13. Regarding A2G A3G A15C A56G U58C U78C, the self-cleavage was 0.38. The value for A2G A3G G52C U58C U78C was 0.24; that for A2G A13C U25C U49C G70A was 0.22; that for A2G A20G A56G was 0.47.

As to A2G A3U A13G A20U U54C U78C, the self-cleavage came out at 0.34. The value for A2C A5G C27U was 0.13. Take A2G A3G U25C G53C U67C U69A: the self-cleavage worked out at 0.06. As for A2G A13U U26A C32U A65G U72C U80C, the self-cleavage was 0.06. Consider A2G A15G G33A, for which the self-cleavage amounted to 0.41. In the case of A2G A18C G24A U41C U80A, the self-cleavage came out at 0.07. Consider A2C U25C A28U C62U, for which the self-cleavage was 0.2. The value for A2G A13G U41G G52U G70A U80C was 0.24; that for A2G A5G A13C A57G was 0.3; that for A2G A5G C29A G52A U54C U60C was 0.11. Consider A2G A13C U72C U74C, for which the self-cleavage is 0.41. As for A2C A3G A20G G24A A47G C62U, the self-cleavage came out at 0.09. On to A2G A13U G16C A18G A28U C34U A56G, for which the self-cleavage came out at 0.09. As for A2C C12A U26C, the self-cleavage was 0.55.

As to A2G A13G C27A U72C, the self-cleavage was 0.35. With A2G A13U U58C, the self-cleavage was found to be 0.19. As for A2G A5G A56G, the self-cleavage came out at 0.13.

In the case of A2G A21G A35U, the self-cleavage was determined as 0.68. A2G A13G G55C A64G U78A: the self-cleavage stood at 0.09. For the variant A2G A5G G16A U41A U66C U80C, the self-cleavage amounted to 0.24. A2G A13G A18G A45G A47U A75U: the self-cleavage stood at 0.57. The value for A2G A5G A13U A18U U54C U60C C62U was 0.1. The value for U1G U49A A56G was 0.46; that for A2G A3G G30A A64G was 0.13. The value for A2G A3U G7A C38A A45U was 0.34; that for A2G A5U A18G C29U A45G U72A was 0.13; that for A2C U74C U78C was 1.04. Take A2G A20G U69A: the self-cleavage came to 0.21. Regarding A2G A3G U26C C62G U80A, the self-cleavage was found to be 0.38.

With U1G U26A C44G U60C U80C, the self-cleavage was 0.46.

For the variant A2G A5G U67C, the self-cleavage came out at 0.19. As for U1G C11U U25C A45U, the self-cleavage was 0.07. The value for A2G A3G A5G A21G G53A A65G was 0.08; that for A2G A20C U41C U54C U60A U78C was 0.05; that for A2C A3U C23G U31C U43C A56U U58C was 0.09. As to A2C A15G U25C U60C, the self-cleavage came out at 0.45. As to A2C C32A C38G, the self-cleavage was 0.06. Take A2C U41A U49A: the self-cleavage turned out to be 0.37. The value for U1G G30A U31A was 0.07; that for A2G A5G G33A A64U A65G U74C was 0.11; that for A2G A15G U26A U69A U72C was 0.12.

Regarding U1G A64U U78C, the self-cleavage is 0.32. On to A2G A5U A47G U74C, for which the self-cleavage worked out at 1.24. The value for U1G U25C C40A U69G U72C A75G was 0.06. U1G A45C U48C U49C U72C C81A: the self-cleavage came out at 0.61. With A2C A47G U72A U78A, the self-cleavage turned out to be 0.28. The value for A2G A5G C44A U67C was 0.16; that for A2G A5G A57G was 0.47; that for A2G A20G U51C A56G U72A was 0.16. A2G A3G G53A U60C A65G A77G: the self-cleavage is 0.2. With A2G A13G A21G U25C U67C A77G, the self-cleavage was 0. A2G A20U A21G A28C A45G: the self-cleavage amounted to 0.05. The value for A2C A28G A35G U51A C59U U60C U66C was 0.18.

For the variant A2G A5G G16A U41A U80C, the self-cleavage turned out to be 0.48. The value for A2G A5U U49A U58A was 0.32; that for A2G A15G A21G G33C U43C U67C was 0.07; that for A2G A5U A15U C44U was 0.61. For A2G A20U U26C U43A, the self-cleavage was 0.45. Turning to A2G A5U A21G U26A U66C, the self-cleavage came to 0.96. For the variant A2G A3G A5G A45U U58C U78C, the self-cleavage amounted to 0.26. The value for A2G A15U G24C U31C U49A was 0.05; that for A2C C11U A28C U41C A45G U78A U80C was 0.04. As for A2C A20C C27G U31C, the self-cleavage was 0.45. The value for U1G A28U U51G U76C U80C was 0.91.

On to A2G A18G A56U C62A, for which the self-cleavage is 0.12. Take A2G A13U U66C U74C: the self-cleavage is 0.13. The value for A2G A13C U31A U69C U72G was 0.12. On to A2G A20G G30A A35G U60C U69A, for which the self-cleavage was 0.31.

On to A2C G19U C32G C34U A56G A77U, for which the self-cleavage turned out to be 0.11. The value for A2G A5U A20G U26G A35U U51G was 0.06.

A2G A5G A28G G52A U80A: the self-cleavage came out at 0.56. On to A2G A20G G24A U51A U80C, for which the self-cleavage worked out at 0.47. In the case of A2G A5U U72A, the self-cleavage came to 1.28. As for A2G A20G A56G A64G, the self-cleavage came out at 0.34. In the case of A2G A13U A20G U54C A56U U60A, the self-cleavage amounted to 0.12.

Turning to A2G A5G A18G U60A, the self-cleavage was 0.47.

Regarding A2C A15U A47G A56G, the self-cleavage was determined as 0.37.

Turning to A2G A3U A5U A28U U51A A64U, the self-cleavage was 0.39.

Take U1G U25C U26C: the self-cleavage was 0.39.

With A2G A20U U43C A56U, the self-cleavage was determined as 0.27. Take A2C G8A U43C G63A U72C G73A A75G: the self-cleavage amounted to 0.04. Regarding A2G A3U G9A U31A, the self-cleavage is 0.49.

Turning to A2G A15G A21G C32A A35G U60C, the self-cleavage was 0.25. A2G A15U A47G A65G: the self-cleavage was 0.17. Take A2G A15U U48C U78C: the self-cleavage was found to be 0.26. On to A2G A18C U43C U51A, for which the self-cleavage worked out at 0.09. Consider A2G A20G U26C U43C A57G U78C U80C, for which the self-cleavage is 0.39. As to A2G A21G A64G U69A, the self-cleavage came out at 0.19. Regarding A2G A18G C34G, the self-cleavage turned out to be 0.34. The value for A2C A47G A77C was 0.96; that for A2G A20U U48G U54A was 0.06.
